# Data reported in the supplement of paper PMC8728848.
# This is one part of the list.
# B1: PX14343H-pdi-506-26-506 (Parabacteroides distasonis) (protein)
# chain: QPTGTMTTDSKLTSKESALALTNSAYLKNTVFNKMTPGWGCNTILLLEYMTGKATSENSQSNYKDFQDLLVSDRSLYIEDWWQDCYAGIANCNLALQKLGEFENLDASLVNGYMAEVKFMRALYYFYLVRIFGDVPKITTVQSELGELQVSRAPVKEIYDEIIIPDLLEAEQSDLAFSDHTGRVSMGAVKALLADVYLTYAGYPLQGGKSYYAESAKRSLEVIKSNEYTLFTDYESLRLPSQNNKGEFIYQVQFSLNKRHNESVRIFLPSRSGISAYDLEYGSLIPTKEFVESFEKGDKRTEEKQYFFTNYKGHPSKFSPGAAELEFMDLNGYYIYKFFDQVAVDNTAKSDLNWSVYRYTDVLLMYAEAQVNADGTPNQQSIDIVNQIRGRAGLAPFKQTNASAFLEEVWDQRYFDLCYENKMWFDMLRTRKIRDDKSGEYVDFIGYKTNWGKVYTETQLLFPIPLSERQANPNLTQNQGY
# Tests used:
# Test in all cases: glycan array binding signal (z-score within array); higher = stronger binding
# Details in all cases: glycan notation: IUPAC condensed, linker removed
# [1] = target: Neu5Ac(a2-6)Gal(b1-4)GlcNAc(b1-2)Man(a1-3)[Neu5Ac(a2-3)Gal(b1-4)GlcNAc(b1-2)Man(a1-6)]Man(b1-4)GlcNAc(b1-4)GlcNAc
# In short: (§1)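 From the Consortium for Functional Glycomics database, 3228 arrays were curated, keeping only those whose protein sequence was available. Binding is given as a within-array Z-score averaged across arrays sharing a protein sequence and across linkers. Negative Z-scores can be read as non-binding.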
# [2] = target: Neu5Ac(a2-6)Gal(b1-4)GlcNAc(b1-2)Man(a1-3)[Neu5Ac(a2-6)Gal(b1-4)GlcNAc(b1-2)Man(a1-6)]Man(b1-4)GlcNAc(b1-4)GlcNAc
# In short: as §1
# [3] = target: Neu5Ac(a2-6)Gal(b1-4)GlcNAc(b1-2)Man(a1-3)[Neu5Ac(a2-6)Gal(b1-4)GlcNAc(b1-2)Man(a1-6)]Man(b1-4)GlcNAc(b1-4)[Fuc(a1-6)]GlcNAc
# In short: as §1
# [4] = target: Neu5Ac(a2-6)Gal(b1-4)GlcNAc(b1-2)Man(a1-6)Man(b1-4)GlcNAc(b1-4)GlcNAc
# In short: as §1
# [5] = target: Neu5Ac(a2-6)Gal(b1-4)GlcNAc(b1-2)Man(a1-6)[Gal(b1-4)GlcNAc(b1-2)Man(a1-3)]Man(b1-4)GlcNAc(b1-4)GlcNAc
# In short: as §1
# [6] = target: Neu5Ac(a2-6)Gal(b1-4)GlcNAc(b1-2)Man(a1-6)[GlcNAc(b1-2)Man(a1-3)]Man(b1-4)GlcNAc(b1-4)GlcNAc
# In short: as §1
# [7] = target: Neu5Ac(a2-6)Gal(b1-4)GlcNAc(b1-2)Man(a1-6)[Man(a1-3)]Man(b1-4)GlcNAc(b1-4)GlcNAc
# In short: as §1
# [8] = target: Neu5Ac(a2-6)Gal(b1-4)GlcNAc(b1-2)[Neu5Ac(a2-6)Gal(b1-4)GlcNAc(b1-4)]Man(a1-3)[GlcNAc(b1-4)][Neu5Ac(a2-6)Gal(b1-4)GlcNAc(b1-2)[Neu5Ac(a2-6)Gal(b1-4)GlcNAc(b1-6)]Man(a1-6)]Man(b1-4)GlcNAc(b1-4)GlcNAc
# In short: as §1
# [9] = target: Neu5Ac(a2-6)Gal(b1-4)GlcNAc(b1-2)[Neu5Ac(a2-6)Gal(b1-4)GlcNAc(b1-4)]Man(a1-3)[GlcNAc(b1-4)][Neu5Ac(a2-6)Gal(b1-4)GlcNAc(b1-4)Man(a1-6)]Man(b1-4)GlcNAc(b1-4)GlcNAc
# In short: as §1
# [10] = target: Neu5Ac(a2-6)Gal(b1-4)GlcNAc(b1-2)[Neu5Ac(a2-6)Gal(b1-4)GlcNAc(b1-6)]Man(a1-6)[Neu5Ac(a2-6)Gal(b1-4)GlcNAc(b1-2)Man(a1-3)][GlcNAc(b1-4)]Man(b1-4)GlcNAc(b1-4)GlcNAc
# In short: as §1
# [11] = target: Neu5Ac(a2-6)Gal(b1-4)GlcNAc(b1-3)Gal(b1-3)GlcNAc
# In short: as §1
# [12] = target: Neu5Ac(a2-6)Gal(b1-4)GlcNAc(b1-3)Gal(b1-4)GlcNAc
# In short: as §1
# [13] = target: Neu5Ac(a2-6)Gal(b1-4)GlcNAc(b1-3)Gal(b1-4)GlcNAc(b1-2)Man(a1-3)[Neu5Ac(a2-6)Gal(b1-4)GlcNAc(b1-3)Gal(b1-4)GlcNAc(b1-2)Man(a1-6)]GalNAc
# In short: as §1
# [14] = target: Neu5Ac(a2-6)Gal(b1-4)GlcNAc(b1-3)Gal(b1-4)GlcNAc(b1-3)Gal(b1-4)GlcNAc
# In short: as §1
# [15] = target: Neu5Ac(a2-6)Gal(b1-4)GlcNAc(b1-3)Gal(b1-4)GlcNAc(b1-3)Gal(b1-4)GlcNAc(b1-2)Man(a1-3)[Neu5Ac(a2-6)Gal(b1-4)GlcNAc(b1-3)Gal(b1-4)GlcNAc(b1-3)Gal(b1-4)GlcNAc(b1-2)Man(a1-6)]GalNAc
# In short: as §1
# [16] = target: Neu5Ac(a2-6)Gal(b1-4)GlcNAc(b1-3)Gal(b1-4)GlcNAc(b1-3)GalNAc
# In short: as §1
# [17] = target: Neu5Ac(a2-6)Gal(b1-4)GlcNAc(b1-3)Gal(b1-4)GlcNAc(b1-3)[Neu5Ac(a2-6)Gal(b1-4)GlcNAc(b1-3)Gal(b1-4)GlcNAc(b1-6)]GalNAc
# In short: as §1
# [18] = target: Neu5Ac(a2-6)Gal(b1-4)GlcNAc(b1-3)Gal(b1-4)GlcNAc(b1-6)[Gal(b1-3)]GalNAc
# In short: as §1
# [19] = target: Neu5Ac(a2-6)Gal(b1-4)GlcNAc(b1-3)Gal(b1-4)[Fuc(a1-3)]GlcNAc(b1-3)Gal(b1-4)[Fuc(a1-3)]GlcNAc
# In short: as §1
# [20] = target: Neu5Ac(a2-6)Gal(b1-4)GlcNAc(b1-3)GalNAc
# In short: as §1
# [21] = target: Neu5Ac(a2-6)Gal(b1-4)GlcNAc(b1-3)[Neu5Ac(a2-6)Gal(b1-4)GlcNAc(b1-6)]GalNAc
# In short: as §1
# [22] = target: Neu5Ac(a2-6)Gal(b1-4)GlcNAc(b1-6)GalNAc
# In short: as §1
# [23] = target: Neu5Ac(a2-6)Gal(b1-4)GlcNAc(b1-6)[Gal(b1-3)GlcNAc(b1-3)]Gal(b1-4)Glc
# In short: as §1
# [24] = target: Neu5Ac(a2-6)Gal(b1-4)GlcNAc(b1-6)[Gal(b1-3)]GalNAc
# In short: as §1
# [25] = target: Neu5Ac(a2-6)Gal(b1-4)GlcNAc6S
# In short: as §1
# [26] = target: Neu5Ac(a2-6)GalNAc
# In short: as §1
# [27] = target: Neu5Ac(a2-6)GalNAc(b1-4)GlcNAc
# In short: as §1
# [28] = target: Neu5Ac(a2-6)GalNAc(b1-4)GlcNAc6S
# In short: as §1
# [29] = target: Neu5Ac(a2-6)GlcNAc(b1-4)GlcNAc
# In short: as §1
# [30] = target: Neu5Ac(a2-6)GlcNAc(b1-4)GlcNAc(b1-4)GlcNAc
# In short: as §1
binder,measurement,setting,value
B1,glycan array binding signal (z-score),[1],-0.276
same,glycan array binding signal (z-score),[2],-0.375
same,glycan array binding signal (z-score),[3],0.327
same,glycan array binding signal (z-score),[4],0.534
same,glycan array binding signal (z-score),[5],-0.542
same,glycan array binding signal (z-score),[6],-0.243
same,glycan array binding signal (z-score),[7],0.039
same,glycan array binding signal (z-score),[8],-0.082
same,glycan array binding signal (z-score),[9],1.45
same,glycan array binding signal (z-score),[10],-0.2
same,glycan array binding signal (z-score),[11],-0.464
same,glycan array binding signal (z-score),[12],-0.276
same,glycan array binding signal (z-score),[13],-0.291
same,glycan array binding signal (z-score),[14],-0.374
same,glycan array binding signal (z-score),[15],0.457
same,glycan array binding signal (z-score),[16],-0.478
same,glycan array binding signal (z-score),[17],-0.062
same,glycan array binding signal (z-score),[18],-0.305
same,glycan array binding signal (z-score),[19],0.801
same,glycan array binding signal (z-score),[20],-0.366
same,glycan array binding signal (z-score),[21],0.834
same,glycan array binding signal (z-score),[22],-0.302
same,glycan array binding signal (z-score),[23],-0.482
same,glycan array binding signal (z-score),[24],0.542
same,glycan array binding signal (z-score),[25],-0.299
same,glycan array binding signal (z-score),[26],-0.406
same,glycan array binding signal (z-score),[27],-0.419
same,glycan array binding signal (z-score),[28],0.748
same,glycan array binding signal (z-score),[29],-0.349
same,glycan array binding signal (z-score),[30],-0.342
